According to the antibiotic and cytotoxicity screens of Wong et al. (2023):
The other results are listed elsewhere or left out.

Test system: S. aureus RN4220
Assay: growth inhibition call (relative growth <= 0.2)
Conditions: 50 µM

Growth inhibition call, inactive:
Cn1cc(-c2cc3c(N4CCN(c5ncc([C@@](C)(N)c6ccc(F)cc6)cn5)CC4)ncnn3c2)cn1, Cn1cnc(S(=O)(=O)N2C[C@@H](O)COC[C@@H]3O[C@@H](CC(=O)NC4CCC4)CC[C@H]32)c1, O=C(C[C@@H]1CC[C@@H](NC(=O)c2cccnc2)[C@@H](CO)O1)NCCN1CCCCC1, C[C@@H]1CCCCO[C@H](CN(C)Cc2ccccc2)[C@H](C)CN([C@H](C)CO)C(=O)c2cc(NC(=O)Cc3ccccc3)ccc2O1, CO[C@H]1CN(C)C(=O)c2cc(NC(=O)c3ccc(F)cc3)ccc2OC[C@@H](C)N(C(=O)CN(C)C)C[C@@H]1C, Cc1noc(C)c1S(=O)(=O)Nc1ccc2c(c1)CC(=O)N([C@H](C)CO)C[C@@H](C)[C@@H](CN(C)S(=O)(=O)c1cn(C)cn1)O2, C[C@@H]1CN([C@@H](C)CO)C(=O)c2cccc(NC(=O)c3cnccn3)c2O[C@@H]1CN(C)S(=O)(=O)c1ccc(Cl)cc1, COc1ccc(S(=O)(=O)Nc2cccc3c2O[C@H](CN(C)Cc2ccncc2)[C@H](C)CN([C@H](C)CO)C3=O)cc1, C[C@@H]1CN([C@H](C)CO)C(=O)c2cc(NC(=O)Cc3ccccc3)ccc2O[C@@H](C)CCCCO[C@@H]1CN(C)C(=O)CCC(F)(F)F, C[C@@H]1CN([C@H](C)CO)C(=O)c2cc(NC(=O)Nc3ccc4c(c3)OCO4)ccc2O[C@@H]1CN(C)Cc1ccc(C(=O)Nc2ccccc2N)cc1, C[C@H](CO)N1C[C@H](C)[C@H](CN(C)Cc2ccc3c(c2)OCCN3C)OCc2cnnn2CCCC1=O, C[C@@H]1CCCCO[C@H](CN(C)C(=O)NC2CCCCC2)[C@H](C)CN([C@@H](C)CO)C(=O)c2cc(NS(=O)(=O)c3ccccc3)ccc2O1, Cc1noc(C)c1NC(=O)Nc1cccc2c1O[C@@H](CN(C)S(C)(=O)=O)[C@@H](C)CN([C@@H](C)CO)C2=O, COc1cccc([C@@H](N)c2ccccc2)c1, COc1ccc(C#Cc2cnc3c(c2)C(=O)N([C@H](C)CO)C[C@H](C)[C@H](CN(C)S(=O)(=O)c2cccs2)O3)cc1OC, COc1ccc(CN(C)C[C@@H]2OCCCC[C@H](C)Oc3ccc(NC(=O)c4ccccc4)cc3C(=O)N([C@@H](C)CO)C[C@H]2C)cc1, CCN1C(=O)[C@@H]2CN(C(C)=O)C[C@@H]2C12CCN(C(=O)COC)CC2, COc1ccc2c(c1)OCC(Cc1ccc(OC)c(O)c1)C2=O (stereo not given), C[C@@H]1CN([C@H](C)CO)C(=O)Cc2cc(NC(=O)c3ccncc3)ccc2O[C@H]1CN(C)Cc1ccncc1, C[C@@H]1CN([C@@H](C)CO)C(=O)c2cccc(NS(=O)(=O)c3ccccc3)c2O[C@H]1CN(C)S(=O)(=O)c1ccc(F)cc1, O=C(C[C@H]1CC[C@@H]2[C@H](COC[C@@H](O)CN2C(=O)c2ccncc2)O1)NC1CCC1, COc1ccc(NC(=O)Nc2ccc3c(c2)C(=O)N([C@H](C)CO)C[C@@H](C)[C@H](CN(C)S(=O)(=O)c2ccccc2)OCCCC[C@@H](C)O3)cc1, C[C@@H]1CN([C@@H](C)CO)S(=O)(=O)c2ccc(-c3cccc(C(=O)N(C)C)c3)cc2O[C@H]1CN(C)C(=O)Cc1ccccn1, COc1ccc(CN(C)C[C@@H]2OCCCC[C@@H](C)Oc3ccc(NC(=O)Cc4ccccc4)cc3C(=O)N([C@H](C)CO)C[C@@H]2C)cc1, COc1ccc(CN(C)C[C@@H]2OCCCC[C@H](C)Oc3ccc(NC(=O)CCC(F)(F)F)cc3C(=O)N([C@@H](C)CO)C[C@@H]2C)cc1, Cc1noc(C)c1S(=O)(=O)N(C)C[C@@H]1Oc2ccc(NS(=O)(=O)c3ccc(Cl)cc3)cc2C(=O)N([C@@H](C)CO)C[C@@H]1C, C[C@@H]1CCCCO[C@H](CN(C)S(=O)(=O)c2ccc(Cl)cc2)[C@H](C)CN([C@@H](C)CO)C(=O)c2cc(NC(=O)NC3CCCCC3)ccc2O1, COc1ccc([C@H](O)[C@H](CCO)OC)cc1O, C[C@@H]1CN([C@@H](C)CO)C(=O)c2cccc(NC(=O)Nc3ccccc3)c2O[C@H]1CN(C)S(C)(=O)=O, CN1C(=O)c2cc(NC(=O)c3cccc(C#N)c3)ccc2OC[C@H]2O[C@@H](CC(=O)NCCN3CCCC3)CC[C@@H]21
